# This is one part of the list. Each Rep nickase domain was tested in vitro on the same pool of single strands at 3 µM enzyme and 37 °C for 1 h; the strands have 90 letters, of which the middle is given. The score is log2 (uncut reads / reads without enzyme); the lower, the more was cut; hits are not called. Shares of all reads are compared; uncut strands gain when others are lost, and binding without cutting may add a little.
# What was measured:
# Assay in all cases: uncleaved DNA left, log2 of reads against the no-enzyme library (log2 ratio); higher = less cleavage (more negative = more Rep cleavage of the k-mer); sequences stand for … in CTCGTCCG…ACCGGAGA
# [1] = tested on: T1, Rep nickase domain of Muscovy duck circovirus
# T1 sequence (residues 1-111, tag not shown): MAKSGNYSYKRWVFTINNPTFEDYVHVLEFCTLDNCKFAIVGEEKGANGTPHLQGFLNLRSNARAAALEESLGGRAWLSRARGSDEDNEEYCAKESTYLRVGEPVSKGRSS
# Experimental: (§1)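 A pool of 90-nt single-stranded DNAs with seven random bases just before the constant AC of the nick site (name = the seven bases) was cut by 3 µM recombinant His6-SUMO-tagged Rep nickase domain (300 nM DNA, 50 mM HEPES pH 8.0, 50 mM NaCl, 1 mM MnCl2, 1 h, 37 °C, three replicates). Uncut DNA was amplified and sequenced.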
# [2] = tested on: T2, Rep nickase domain of banana bunchy top virus
# T2 sequence (residues 1-94, tag not shown): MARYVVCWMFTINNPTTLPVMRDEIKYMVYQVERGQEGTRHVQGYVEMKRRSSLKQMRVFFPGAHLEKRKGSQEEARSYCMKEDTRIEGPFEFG
# Experimental: as §1
# [3] = tested on: T3, Rep nickase domain of cabbage leaf curl virus
# T3 sequence (residues 1-116, tag not shown): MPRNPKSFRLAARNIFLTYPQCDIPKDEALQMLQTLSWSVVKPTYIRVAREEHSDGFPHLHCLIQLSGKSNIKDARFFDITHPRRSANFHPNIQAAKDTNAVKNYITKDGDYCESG
# Experimental: as §1
# [4] = tested on: T4, Rep nickase domain of chickpea chlorotic dwarf virus
# T4 sequence (residues 1-124, tag not shown): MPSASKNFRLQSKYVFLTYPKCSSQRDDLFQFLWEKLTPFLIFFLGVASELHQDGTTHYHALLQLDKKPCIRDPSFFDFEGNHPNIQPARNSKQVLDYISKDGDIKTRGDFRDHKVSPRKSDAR
# Experimental: as §1
# [5] = tested on: T5, Rep nickase domain of faba bean necrotic yellows virus
# T5 sequence (residues 1-98, tag not shown): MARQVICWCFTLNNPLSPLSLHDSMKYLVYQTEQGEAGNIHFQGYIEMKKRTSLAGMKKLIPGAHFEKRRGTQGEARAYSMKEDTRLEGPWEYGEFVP
# Experimental: as §1
# [6] = tested on: T6, Rep nickase domain of maize striate mosaic virus
# T6 sequence (residues 1-117, tag not shown): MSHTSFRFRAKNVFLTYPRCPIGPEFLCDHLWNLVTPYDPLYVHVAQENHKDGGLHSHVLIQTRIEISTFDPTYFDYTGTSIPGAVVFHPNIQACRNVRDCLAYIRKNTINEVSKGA
# Experimental: as §1
# [7] = tested on: T7, Rep nickase domain of porcine circovirus 2
# T7 sequence (residues 2-116, tag not shown): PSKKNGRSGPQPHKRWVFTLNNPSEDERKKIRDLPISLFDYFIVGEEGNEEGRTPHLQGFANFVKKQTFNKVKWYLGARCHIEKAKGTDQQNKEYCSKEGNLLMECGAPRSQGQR
# Experimental: as §1
# [8] = tested on: T8, Rep nickase domain of tomato golden mosaic virus
# T8 sequence (residues 1-124, tag not shown): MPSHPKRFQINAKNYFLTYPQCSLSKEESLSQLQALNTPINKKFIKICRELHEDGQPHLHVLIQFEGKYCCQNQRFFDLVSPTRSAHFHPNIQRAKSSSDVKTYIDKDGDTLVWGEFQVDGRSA
# Experimental: as §1
# [9] = tested on: T9, Rep nickase domain of tomato yellow leaf curl virus
# T9 sequence (residues 1-136, tag not shown): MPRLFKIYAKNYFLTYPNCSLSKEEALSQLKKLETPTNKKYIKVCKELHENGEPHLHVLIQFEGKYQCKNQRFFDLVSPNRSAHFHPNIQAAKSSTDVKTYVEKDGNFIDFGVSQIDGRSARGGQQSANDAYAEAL
# Experimental: as §1
# [10] = tested on: T10, Rep nickase domain of wheat dwarf virus
# T10 sequence (residues 1-137, tag not shown): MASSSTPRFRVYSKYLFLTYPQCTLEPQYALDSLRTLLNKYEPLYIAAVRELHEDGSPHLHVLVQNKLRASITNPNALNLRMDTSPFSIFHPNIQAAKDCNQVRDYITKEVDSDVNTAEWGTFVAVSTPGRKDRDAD
# Experimental: as §1
Sequence,uncleaved DNA left (log2) [1],uncleaved DNA left (log2) [2],uncleaved DNA left (log2) [3],uncleaved DNA left (log2) [4],uncleaved DNA left (log2) [5],uncleaved DNA left (log2) [6],uncleaved DNA left (log2) [7],uncleaved DNA left (log2) [8],uncleaved DNA left (log2) [9],uncleaved DNA left (log2) [10]
TAAATCG,-0.00756,-0.0159,-0.958,-1.28,0.099,-1.33,0.208,-0.0108,-0.0346,-0.0876
CGTTATC,-0.0574,0.0599,0.18,0.33,0.104,-0.219,0.145,-0.0379,0.0131,0.126
TGGAGCA,0.0152,-0.0391,0.314,0.56,-0.0857,0.354,-1.19,-0.145,-0.0853,0.0216
TTATCCG,-0.118,-0.155,-0.944,-0.204,-0.101,-1.11,0.0755,-0.125,-0.0769,-0.225
GGTTGCT,-0.208,-0.0453,-0.345,-0.454,-0.0107,-0.379,-0.951,-0.0667,-0.0141,-0.122
TTGCCAC,-0.0381,-0.244,-0.432,-0.722,-0.0159,-0.858,-1.38,-0.00197,0.112,-0.0439
AGAGTCA,-0.0051,0.0742,0.148,0.00571,0.0325,0.384,-0.162,-0.00552,0.0476,-0.0107
TAGGAAG,0.0668,0.101,-0.466,-0.571,0.0859,-0.997,0.102,0.123,0.0734,-0.142
GTGCGCA,-0.00777,-0.0461,-0.139,0.165,0.00116,-0.163,0.0267,-0.0572,-0.107,-0.0536
AATGCGT,-0.12,-0.0714,-0.912,0.121,0.0963,-0.854,0.0298,-0.126,-0.0202,-0.121
AAGGACG,0.0778,0.183,-0.635,-0.625,0.101,-1.1,0.304,0.239,0.231,0.213
TGTGGTG,-0.0205,-0.0443,-0.47,-0.652,0.018,-0.672,0.0782,-0.0423,0.0771,-0.152
CTTCTCG,0.0254,-0.00266,-0.91,-0.325,0.027,-0.885,0.2,-0.0338,0.0755,-0.083
AAATCTC,-0.106,0.0471,-3.16,-2.78,0.0733,-0.0879,-0.438,-1.52,0.144,-2.05
TGAAGGG,0.00525,0.0685,0.12,0.266,0.0748,-0.312,0.173,0.0938,-0.00442,-0.00229

# — the supplement of paper PMC7826260
